# About 230 (0.21%) of roughly 110,000 compounds showed an effect of 50% or more. This is one part of the list.
# Biological target: DPAP1 (Plasmodium falciparum, UniProt Q8IIJ9)
# Assay: primary screen, percent inhibition; read by cleavage of a fluorogenic dipeptide substrate; higher = more effect of the substance
# Design: species or system P. falciparum D10 trophozoite lysates; single well
# 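Further: 30 min substrate incubation versus DMSO and 10 µM JCP410 controls.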
# Sequence of DPAP1 (Q8IIJ9 whole entry, looked up): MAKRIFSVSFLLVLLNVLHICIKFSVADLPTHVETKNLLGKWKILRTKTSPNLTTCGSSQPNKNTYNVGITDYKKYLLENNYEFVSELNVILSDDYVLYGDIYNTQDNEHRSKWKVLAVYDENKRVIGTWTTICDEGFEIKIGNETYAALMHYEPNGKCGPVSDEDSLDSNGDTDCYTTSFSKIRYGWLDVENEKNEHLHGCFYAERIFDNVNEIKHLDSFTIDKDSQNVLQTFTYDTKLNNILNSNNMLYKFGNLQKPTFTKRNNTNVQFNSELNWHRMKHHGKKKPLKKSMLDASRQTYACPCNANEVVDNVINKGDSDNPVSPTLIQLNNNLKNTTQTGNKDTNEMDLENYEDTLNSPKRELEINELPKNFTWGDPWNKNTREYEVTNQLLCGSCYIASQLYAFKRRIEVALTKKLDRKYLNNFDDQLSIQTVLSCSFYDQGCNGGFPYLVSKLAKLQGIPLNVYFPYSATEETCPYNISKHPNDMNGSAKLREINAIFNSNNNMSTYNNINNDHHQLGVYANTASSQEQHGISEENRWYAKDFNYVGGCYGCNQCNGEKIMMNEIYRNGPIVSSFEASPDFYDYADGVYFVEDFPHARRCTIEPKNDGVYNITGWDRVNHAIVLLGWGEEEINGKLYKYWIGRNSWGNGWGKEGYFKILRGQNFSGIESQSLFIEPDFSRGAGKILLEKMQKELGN
row,SMILES,% Inhibition @ 10 uM [%]
1,CC(=O)c1sc(NC(=O)COc2ccc(C)c(C)c2)nc1C,1.08
2,COc1cc(/C=C2\C(=O)N(c3ccccc3)N=C2C)c([N+](=O)[O-])cc1OC,3.83
3,Cc1ccc(Cn2c(C)c(C=O)c(C(=O)O)c2C)cc1,-3.53
4,Cc1ccc(Oc2ccc(N3C(=O)c4ccc(Oc5ccc(N)cc5)cc4C3=O)cc2)cc1C,3.47
5,COc1ccc(OC)c(NC(=O)CCCOc2ccc(Cl)cc2C)c1,5.73
6,COc1ccc(NC(=O)CN(c2ccccc2F)S(=O)(=O)c2ccccc2)cc1,-0.185
7,CC1=C(C(=O)Nc2ccc(C)cc2)C(c2ccc(Cl)cc2Cl)NC(S)=N1 (centres unmarked),-1.76
8,COCCNC(=O)c1sc2ncn(CC(=O)N3CCCCC3C)c(=O)c2c1C (centres unmarked),4.35
9,Cc1ccc(OCCOc2ccc(/C=C3\C(=N)N4N=C(N5CCOCC5)SC4=NC3=O)cc2)cc1,7.84
10,O=C(CC(c1ccccc1)c1ccccc1O)N1CCNCC1 (centres unmarked),3.54
11,O=C(O)/C(=C\c1ccccc1)NC(=O)c1cccc(Br)c1,-4.13
12,Cc1cc(C)c2c(CC(=O)Nc3cccnc3)coc2c1,-0.671
13,Cc1[nH]nc(O)c1C(c1cc2c(cc1Cl)OCO2)c1c(O)n[nH]c1C,5.07
14,O=C(O)[C@@H]1CSC(c2ccco2)N1 (some centres unmarked),-9.13
15,O=C1CCCC2=C1C(c1ccc(OCc3ccccc3)cc1)C1=C(CCCC1=O)O2,0.52
16,O=C1OC(c2ccc(Cl)cc2)=N/C1=C\N1CCCCC1,-0.48
17,CC(CCc1ccccc1)NCc1c(C(=O)O)n(Cc2ccc(F)cc2)c2ccccc12 (centres unmarked),3.54
18,Cc1ccc(CN2CCN(CC(=O)NC(C)c3ccccc3)C2=O)cc1 (centres unmarked),-2.7
19,C=CCn1c(C(O)c2ccccc2)nc2ccccc21 (centres unmarked),-1.37
20,Cc1cc(C)nc(NC(=O)NS(=O)(=O)N(Cc2ccccc2)c2ccccc2)n1,0.716
21,CCOC(=O)c1[nH]c2c(c1Cc1ccccc1C)C(=O)CC(C)(C)C2,-3.87
22,O=S(=O)(NCc1csc(-c2cccnc2)n1)c1ccc(Br)cc1,-0.72
23,COc1cc(OC)cc(-c2nc3cc(Cl)ccc3o2)c1,0.993
24,Cc1ccc(OCCn2cnc3ccccc32)c(C(C)C)c1,1.72
25,COc1ccc(S(=O)(=O)Nc2ccncc2)c(C)c1C,-2.21

row,SMILES,% Inhibition @ 10 uM [%]
1,COc1ccc2c(c1)C(=O)N(c1ccccc1)C(=O)/C2=C\N1CCCCC1,9.01
2,CCN(CC)C(=O)Cn1cc(SCC(=O)NC(C)(C)C)c2ccccc21,2.19
3,O=C(NCc1ccc(Cl)cc1)C(=O)NC1CCCCC1,1.57
4,COc1ccc(/N=C2/S/C(=C\c3cc(OC)c(OC)c(OC)c3)C(=O)N2C)cc1,0.161
5,COc1cccc(C2=NN(C(=O)c3ccco3)C(O)(C(F)(F)F)C2)c1 (centres unmarked),-5.14
6,CCOC(=O)N1CCC(NC(c2nnc(-c3ccccc3)o2)c2ccc(F)cc2Cl)CC1 (centres unmarked),-2.29
7,CCN1CCN(c2ncnc3c2c(-c2ccccc2)cn3-c2cccc(Cl)c2)CC1,3.36
8,CCN(CC)C(=O)CN(C#N)c1nc(OC)nc(N(C)C)n1,-6.37
9,c1ccc(Oc2cc(-c3ccccc3)nc(-c3ccccc3)n2)cc1,-3.26
10,CC1CC(C)CN(C(=O)Cn2cc3c(n2)CCCCC3)C1 (centres unmarked),-3.35
11,C=C(C)[C@H]1CC=C(CN2CCc3cc(OC)c(OC)cc3C2c2cccc(Cl)c2)CC1 (some centres unmarked),-0.13
12,CC1CCN(S(=O)(=O)c2ccc(NC(=O)CC(C)c3ccccc3)cc2)CC1 (centres unmarked),-1.99
13,Cc1ccc(/C(=C\N2CCCC2)S(=O)(=O)c2ccc(C)cc2)cc1,-6.74
14,CC1CCN(CC(O)COc2ccc3ccccc3c2)CC1 (centres unmarked),-5.96
15,COc1nc2c(c(=O)n(C)c(=O)n2C)n1Cc1ccccc1Cl,0.493
16,Cc1ccc(Cn2c(=O)c3cccnc3n(Cc3cc(=O)n4cc(Cl)ccc4n3)c2=O)cc1,-3.66
17,COc1ccccc1OCC(=O)Nc1ccc(S(=O)(=O)N2CCOCC2)cc1,-8.59
18,O=C(Cn1cnc2c(cnn2-c2ccccc2)c1=O)c1ccc(Cl)cc1,-5.37
19,COC(=O)c1cc(OC)c(OC)cc1NC(=O)C12CC3CC(CC(C3)C1)C2,-0.128
20,CC1(C)CC(=O)C2=C(C1)NC(=O)CC2c1ccccc1Cl (centres unmarked),-4.49
21,O=C(NCc1ccccc1)c1ccc2snnc2c1,-9.25
22,CCOc1ccc(NC(=O)Nc2ccc(NC(=O)Nc3ccc(OCC)cc3)cc2)cc1,-3.04
23,CN(c1ccc(C(=O)Nc2cccc(N(C)S(C)(=O)=O)c2)cc1)S(C)(=O)=O,-0.469
24,O=C(NCCN1CCC(Cc2ccccc2)CC1)C1CCN(c2nc3ccccc3n3cccc23)CC1,-3.18
25,CS(=O)(=O)N(CC(=O)Nc1ccccc1)c1ccc(Br)cc1,0.108

row,SMILES,% Inhibition @ 10 uM [%]
1,CCOc1nc(-c2ccc(C)cc2)ccc1-c1noc(C(C)C)n1,-5
2,O=C(NCCC1=CCCCC1)c1cc(-c2ccco2)[nH]n1,7.2
3,Cc1ccccc1Cn1nnc2c(O)nc(C3CCCN(C(=O)c4ccccc4Cl)C3)nc21 (centres unmarked),3.81
4,O=C(CSc1nnc(CN2CCOCC2)n1-c1ccccc1)c1ccc2c(c1)CCCC2,-2.42
5,Cc1ccc(CNCc2c(C(=O)O)n(C)c3ccccc23)cc1,5.09
6,O=C(CCn1cccn1)NCCCc1ccccc1,-5.72
7,c1ccc2oc(SCc3nc4c5c6c(sc5ncn4n3)CCCCC6)nc2c1,3.43
8,Cc1cc(NC(=O)C2CCCN(c3ncnc4c3nc3n4CCCCC3)C2)no1 (centres unmarked),5.49
9,O=c1c(CN2CCC3(C=Cc4ccccc43)CC2)coc2ccccc12,3.35
10,CCN(C(=O)/C=C/c1cccc([N+](=O)[O-])c1)c1ccccc1,-3.71
11,Cc1cc(C)c(C(N)=O)c(NCCc2ccccc2)n1,-3.5
12,CCOC(=O)C1=CN(C(C)C)C=C(C(=O)OCC)C1c1cc(Br)ccc1OC,1.66
13,O=C(COc1ccc(S(=O)(=O)NC2CCCCC2)cc1)NC1CCCC1,-0.48
14,CN1CCCN(C2CCCCCC2)CC1,1.29
15,N#CCNC(=O)[C@H](CS(=O)(=O)Cc1ccc(C(=O)O)cc1)NC(=O)c1ccccc1,-0.214
16,Cc1ccc(-n2ncc(C(=O)N3CCCCC3)c2NC(=O)c2ccco2)cc1C,-5.13
17,CN(C)c1ccc(CN2CCN(c3ncccn3)CC2)cc1,3.1
18,Cc1ccc(NC(=O)C2CC(=O)N(c3ccc(Cl)cc3)C2)cc1C (centres unmarked),3.53
19,O=C(O)c1ccc(CNC(=O)C2CCCCC2C(=O)O)cc1 (centres unmarked),5.99
20,CC1(C)CC(=O)/C(=C/c2ccco2)CO1,4.66
21,CC1CCCCC1NC(=O)Cn1ncn2nc(-c3cccs3)cc2c1=O (centres unmarked),-2.85
22,Cc1cccc(NC(=O)c2cccc(OCc3ccccc3)c2)n1,9.19
23,Cc1c(CNC2CCC(C)CC2)c(C(=O)O)c(C)n1Cc1ccc(F)cc1Cl (centres unmarked),-0.439
24,O=C(CCn1nc(-c2ccccc2)ccc1=O)N1CCN(c2ccccn2)CC1,1.62
25,Cc1cc(C)c(S(=O)(=O)Nc2ccc(S(=O)(=O)NC(C)(C)C)cc2)c(C)c1,-7.23

row,SMILES,% Inhibition @ 10 uM [%]
1,COCc1noc2c1C(c1cccc(Br)c1)C(C#N)=C(N)N2 (centres unmarked),-2.8
2,COC(=O)C1=C(C)N(Cc2cccnc2)C(=O)/C1=C\c1cc(OC)c(OC)c(OC)c1,2.7
3,O=C(Nc1ccccc1F)c1cccc(C(=O)Nc2ccccc2F)c1,-4.4
4,CC1=C(C(=O)NCCc2ccc(Cl)cc2)C2(CCC(C)CC2)OC1=O (centres unmarked),3.19
5,Oc1ccc(C2N=C(c3ccccc3)NC(c3ccccc3)=N2)cc1,-2.66
6,COc1ccc(Br)cc1CNC(=O)CN(C)c1nn2c(=O)cc(C)nc2s1,-3.79
7,CCOc1ccc(-c2[nH]c3c(C#N)cnn3c2NC2CCC(C)CC2)cc1 (centres unmarked),-1.11
8,CCOC(=O)c1c(NC(=O)/C(C#N)=C\c2ccco2)sc2c1CCCC2,6.11
9,O=C(c1cc2nc(-c3cccs3)cc(C(F)(F)Cl)n2n1)N1CCSCC1,4
10,O=C(Cn1cnc2ccc(Cl)cc2c1=O)Nc1ccc2c(c1)OCO2,-3.04
11,COc1ccc(C2C(C#N)=C(N)Oc3cc4c(cc32)OCO4)cc1Cl (centres unmarked),2.51
12,COCCNC(=O)C(CCS(C)(=O)=O)N1Cc2ccccc2C1=O (centres unmarked),-2.69
13,COC(=O)Nc1c(-c2ccccc2)nc2ccc(Cl)cn12,6.76
14,CCSC1=C(C#N)C(c2ccc(C)cc2)C2=C(O)CCCC2=N1 (centres unmarked),-3.21
15,CN(C)CCNC1CCN(CCc2ccccc2)CC1,4.75
16,CC1CN(c2nc3ccccc3nc2SCC(=O)NCCc2ccccc2)CC(C)O1 (centres unmarked),0.032
17,C=CCSc1nc(=O)c2c(n1C)NC(=O)CC2c1cccc(F)c1F (centres unmarked),-1.11
18,O=C(COc1ccc(C(=O)Nc2cccc(C(F)(F)F)c2)cc1)Nc1ccc(F)cc1,-2.09
19,C=CCNC(=O)C(=O)NCc1ccc(Cl)cc1,-4.01
20,COc1ccccc1-c1cc(CC(C)C)nc(N)c1C#N,-2.21
21,Cc1nn(-c2cc(Cl)nc(-c3ccccc3)n2)c(N)c1C#N,0.726
22,O=C(c1cccnc1)N1CCC(c2c[nH]c3ccccc23)(c2c[nH]c3ccccc23)CC1,-2.37
23,COc1ccc(NC(=O)c2ccccc2C)c(N)c1,5.15
